The other results are listed elsewhere or left out.
B1: chr4:34756745:34756746:-_ENSMUSG00000039967_ENSMUST00000047950|mus_mus|FALSE|FALSE (ssRNA)
RNA: GGGAGUUCUACAGUCCGACGAUCUAUAUUUGGACUUAGGACACUUUCCACUGAGGGUAACAAUGGAGCUGAUACACUUGCUAAAUGAGCUGGGAAAAUGGAAGGCGAGACAUGCUGCACCUGGGCUGAACAGGCAGGGUUCCCCAACAGAGGAUUGAGCAUCA
B2: 108517216_108517336_2877_CDS_ENSMUSG00000032846_ENSMUST00000105097|mouse|control|control (ssRNA)
RNA: GGGAGUUCUACAGUCCGACGAUCCGUCCGGGCACUGCUGGCCAGCUUUUCCUGUUGAUGGCAGUCCAGGUGGAGGCGGACUAUGGUGCUGUUGGACAUCACGGUAGUCGCAACAAUACUCGUGGCCUCCGUGGGAGUGAAAAGCAACAGAGGAUUGAGCAUCA
B3: chr11:57926588:57926589:+_ENSMUSG00000020515_ENSMUST00000020822|mus_mus|FALSE|FALSE (ssRNA)
RNA: GGGAGUUCUACAGUCCGACGAUCAUCGAUCCCUUCCUCCUCGUGUUUCUGGAACUGCAGCCCUGAGUUUGCAAGCAGAUCUAUGGAAUCCUGGGAGUACAUAUCCUCUGUCAGGUUGAACUUGAAGUUGAACUGCCAUGUGUUCAACAGAGGAUUGAGCAUCA
B4: 69782529_69783183_1747_CDS_ENSMUSG00000044308_ENSMUST00000055758|mouse|control|control (ssRNA)
RNA: GGGAGUUCUACAGUCCGACGAUCAAGCCCCCACAUGGGUUGUGCACAGGCUUCCAGCUCAGCAGCAAAGGCAGCAUAGUAGGUCUGAGACUCAAAUUCCACGUGCUCAUUGAGCUCUCGCUUGUUCAAGUUCAUACCUUGAAACAACAGAGGAUUGAGCAUCA
B5: chr8:117878989:117878990:-_ENSG00000164754_ENST00000297338|hu_hu|hu_hu_hu_mus_True|68_68 (ssRNA)
RNA: GGGAGUUCUACAGUCCGACGAUCCCAGAGGCCCUCGUUUACUGAGGACAAAAUGUGCGUAGAACAUUGUUCUGGCUUGCUAUGAAAUAAGAAGAAACCUGGAUCUCGGCGGGGAGCCGGGAGGGGUGGGUGGCCCGGGGAGGGCAACAGAGGAUUGAGCAUCA
B6: chr5:4806066:4806067:-_ENSMUSG00000028926_ENSMUST00000030763|mus_mus|FALSE|FALSE (ssRNA)
RNA: GGGAGUUCUACAGUCCGACGAUCUCACCCUGUCUUUGUUUUCCAUGUUUAUUUCUCUACCUGCUCAGAAACAGUCAGGCUAUUGAAAUAGCAAGUGGAUUUUGGUCUCCUGUGUAAAUGUGUGCUCAUUUCCAAUAAAAAACGCAACAGAGGAUUGAGCAUCA
B7: 151583239_151585632_2825_3pUTR_ENSMUSG00000034021_ENSMUST00000016569|mouse|control|control (ssRNA)
RNA: GGGAGUUCUACAGUCCGACGAUCCUCCCAGCAGCAAGUCUCAGGCGUGACAUAUCUGGUUUACUAAUUUUCCCUUGUUCUGUCAAAUCCCCAUCACUAUGCAGUAUCGUUGUUAGUAAUCUGAGGGUGGAAGUUCCUGACUUACAACAGAGGAUUGAGCAUCA
B8: 69488064_69490052_123_CDS_ENSG00000149716_ENST00000279147|human|control|control (ssRNA)
RNA: GGGAGUUCUACAGUCCGACGAUCUUCCCGAUACCCUUCCCCAUGAAACCUCUCAUCCGCCAUCACGAUGGCAUCGAAUAUGUCCUGACUGCCAGCCAUAGCGGCAAGCAGCCCGCCCUUGGCCCCCGGGUUUCUGCAGCCCCGCAACAGAGGAUUGAGCAUCA
B9: chr9:53390698:53390699:-_ENSMUSG00000032047_ENSMUST00000034547|mus_hu|FALSE|FALSE (ssRNA)
RNA: GGGAGUUCUACAGUCCGACGAUCGGUUGUCUACAGCUUCUGAAUUAGCAUGGCAGAAGCACCUCCUCCUCCAUUGCAAAUACUGGCAAGACCGUAUUCUCCUUGCUUCAAGGCAUGAGUCAAAUGACCAACAAUCCUGGCUCCCAACAGAGGAUUGAGCAUCA
B10: chr16:20935853:20935854:+_ENSG00000102897_ENST00000219168|hu_mus|FALSE|FALSE (ssRNA)
RNA: GGGAGUUCUACAGUCCGACGAUCCAAGAAUCAGGAGACCACAAAAAAGCCUAUACAGAAACCAGUUUUAAGCAAAUGAAAAUAACUUGCGGAAAAACCUCAAGUUUUGGGGAGAAGGGUAGCUUUGGAGCCAUGUGAACUUGCCAACAGAGGAUUGAGCAUCA
B11: chr3:8560387:8560388:+_ENSMUSG00000027500_ENSMUST00000029002|perfect_dup|FALSE|FALSE (ssRNA)
RNA: GGGAGUUCUACAGUCCGACGAUCCAUACACUUCCCAUACUGAUAUCGCAUGAUCCAUUAUAAUAUAGGCAGGGGGAUUUACUAUGGGAGGGGCUUGCCAUACCCGCCAUUGCUUCAGCCAGACAGUUCAACCUGCAGUUCCUUCAACAGAGGAUUGAGCAUCA
B12: 119215667_119222031_344_CDS_ENSG00000111875_ENST00000229595|human|control|control (ssRNA)
RNA: GGGAGUUCUACAGUCCGACGAUCAUGCCUUCCUGCGGGAACAGGACCCACUAAAACAGAGUCUAAAACUUGAUCGUAUUCUUCACUUUCUGCAGAGCCCACAUAGAUAAUUUUCCAUUCCAAGUCUUCAGACAGGUCCUCGAUCAACAGAGGAUUGAGCAUCA
B13: chr10:70525781:70525782:+_ENSG00000060339_ENST00000535016|hu_hu|FALSE|FALSE (ssRNA)
RNA: GGGAGUUCUACAGUCCGACGAUCUGAAUGUUCUUUAUUAUCCUCUAAUCUGUAGUCCAAUAGGACACUCAAAGACAUGAUGCUACAAUCAAACUUGCCACUUUUUGCAGCCCAAUUUGGAUGUACAAUGAUGGCCGGUUCAUCCAACAGAGGAUUGAGCAUCA
B14: 18274065_18293492_5945_CDS_ENSG00000243156_ENST00000441493|human|control|control (ssRNA)
RNA: GGGAGUUCUACAGUCCGACGAUCGCCUGCUUCGCCCCGGAGCGCCUUCUCCACAGCCACGCCCCUUUCCUCCAGCCGCCGCUGCCUCUCCUCCACCUGCUGCAGCUGCCGCUGGAUGAUCUGGGCUCGAUGCAGCCGCUUAAGCAACAGAGGAUUGAGCAUCA
B15: chr2:136389457:136389458:+_ENSG00000048991_ENST00000409478|hu_mus|FALSE|FALSE (ssRNA)
RNA: GGGAGUUCUACAGUCCGACGAUCCUGAUCAACAUUGUGGUCUAAUCCAAAGUAGGCAGCCACUCUGUGUAACAGCAUCCUGUGGUAAGAUGUCAUCGGGGGAAACUUCUUACGUGGGGACUCAUUAUUACCAAUGAAAUCUAACAACAGAGGAUUGAGCAUCA
B16: chr6:142515020:142515021:-_ENSMUSG00000030247_ENSMUST00000032374|mus_mus|FALSE|FALSE (ssRNA)
RNA: GGGAGUUCUACAGUCCGACGAUCCCCUCCAAACCCAAUGGUCACUUGAACCUCAAUGGAGAAGAGAAACGCAGACGUGAAUGACCUGACAUUGGUCACACAGACAGCGGACUCCAGGCCACUCUUCUCCAUGGUGCCUUUCUCCAACAGAGGAUUGAGCAUCA
B17: chr11:118370577:118370578:+_ENSG00000118058_ENST00000534358|hu_mus|FALSE|FALSE (ssRNA)
RNA: GGGAGUUCUACAGUCCGACGAUCCUGGUAUCCAAUAGGAAAGAGUUUAUCUUCACAGUCAGAGAGGUCAUUCAGGAUUCCCAAACAGUCGAUUGUCAUUGAGCCUAUCAUCAUGUGGAUAUUUUCUGGUUCCAAGCCAUUAAGCAACAGAGGAUUGAGCAUCA
B18: chr4:57314706:57314707:+_ENSG00000128050_ENST00000264221|hu_mus|hu_hu_hu_mus_True|38_58 (ssRNA)
RNA: GGGAGUUCUACAGUCCGACGAUCCAGAAUUUCAAAAAUAGCUUGUGUGGCAUGACUCAUGAUGUCCACUUCAGUCUGGCCUAUAAGAAGGCCAGCAAAGCAAAAUUUUGCAGCAAUGAGUUGCUCCUCAGACCACUGUGGAUCCAACAGAGGAUUGAGCAUCA
B19: chr11:87793471:87793472:-_ENSMUSG00000020483_ENSMUST00000020775|mus_mus|FALSE|FALSE (ssRNA)
RNA: GGGAGUUCUACAGUCCGACGAUCAAUGGGCUGGGGAAAAAAAAAUAGCUAGAUUUCCCCACCCCUUACAGUGUCAACCCUAUGCGAGUUCUGAAUGUGAUUCAUAAGAAUCAGCAGCUCAAUUGGCAAUGACAACCCCCACCCCAACAGAGGAUUGAGCAUCA
B20: 127869695_127869815_373_3pUTR_ENSMUSG00000046096_ENSMUST00000060175|mouse|control|control (ssRNA)
RNA: GGGAGUUCUACAGUCCGACGAUCUGUAGCUUCUCUUCGCCAGUGGGAAGCCACCAGCAAACCACAUGUGACAGUCAAGGAAAUGAUUCCCAUGAUGAUAAAAAACAGGGUGGUGACCCAUUCUGGGGGAAGCCGAGGAGGGAUCAACAGAGGAUUGAGCAUCA
B21: chr1:39494447:39494448:+_ENSG00000168653_ENST00000372967|hu_mus|FALSE|FALSE (ssRNA)
RNA: GGGAGUUCUACAGUCCGACGAUCGCACCGAGCGGCGUUCUUAUAGGGCUGUUCUGCGCUUAGGAACAUAAAGUGCCGGUCCAGGCUGAUGCCCAGCUUUUUCUGUAUGUCAAGGAAAGGCAUGGCUCUGCAGUGCCCUUGUCACAACAGAGGAUUGAGCAUCA
B22: chr1:137268451:137268452:-_ENSMUSG00000041889_ENSMUST00000041240|mus_mus|FALSE|FALSE (ssRNA)
RNA: GGGAGUUCUACAGUCCGACGAUCUGGCCUGAUGACUAGGAGACCCUUGCCCACCCUCAGGGCUAGAUGCAGGUACAGGACGGGGACUCUCCCAAAAAAAAAAAAAACCCAAAAAACGACAUCACGGAAGGGACAGCAGAGCCACAACAGAGGAUUGAGCAUCA

These binders were tested against T1, UNK ZnF1-3 (human, UniProt Q9C0B0 31-174) (assay: nsRBNS (natural sequence RNA bind-n-seq); RBNS binding buffer (assumed for nsRBNS): 25 mM Tris pH 7.5, 150 mM KCl, 3 mM MgCl2, 0.01% Triton X-100, 500 ug/ml BSA, 20 U/ml SUPERase-In, 4 C; UNK is unkempt and MSI1 is Musashi-1; names of the RNAs are library labels; protein concentration not given here; high values mean tight binding).
T1 sequence: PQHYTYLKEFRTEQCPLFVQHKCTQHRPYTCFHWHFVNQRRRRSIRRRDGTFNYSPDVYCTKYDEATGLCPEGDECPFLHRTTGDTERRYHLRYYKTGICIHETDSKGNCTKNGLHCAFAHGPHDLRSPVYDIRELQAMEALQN
B1 was tested, and the binding signal was 1.42 enrichment R.
For B2, the binding signal was 0.71 enrichment R.
Work on B3 yielded a binding signal of 0.776 enrichment R.
Binder B4 has a binding signal of 1.23 enrichment R.
With B5 the binding signal was 2.56 enrichment R.
B6 was tested, and the binding signal was 1.09 enrichment R.
With B7 the binding signal was 1.06 enrichment R.
In the case of B8, the binding signal is reported as 1.13 enrichment R.
With B9 the binding signal was 1.08 enrichment R.
B10 showed a binding signal of 2.38 enrichment R.
B11 showed a binding signal of 1.63 enrichment R.
With B12 the binding signal was 1.29 enrichment R.
With B13 the binding signal was 0.662 enrichment R.
Binder B14 has a binding signal of 0.605 enrichment R.
B15 was tested, and the binding signal was 0.711 enrichment R.
For B16, the binding signal was 0.683 enrichment R.
With B17 the binding signal was 1.73 enrichment R.
B18 gave a binding signal of 0.965 enrichment R.
Binder B19 has a binding signal of 1.15 enrichment R.
B20 was tested, and the binding signal was 0.892 enrichment R.
In the case of B21, the binding signal is reported as 0.806 enrichment R.
In the case of B22, the binding signal is reported as 1.58 enrichment R.
